{
  "source": "paper PMC10668032",
  "note": "This is one part of the list. At the low end of the ranking, values are background and their order means little.",
  "data": [
    {"biological_target": "SIX1 homeodomain (reference allele) (UniProt Q15475)", "assay": "universal protein binding microarray", "settings": "Universal all-10-mer PBM (8x60K, AMADID 030236), 300 nM GST-tagged protein, Alexa Fluor 488 anti-GST; buffer, salt, pH and temperature not stated; high values mean tight binding; most listed sequences are background and not binding sites; double strand, one strand shown", "units": {"binding signal": "E-score"}, "values": [
      {"sequence": "AGCACCCG", "binding signal": 0.101},
      {"sequence": "CCCCGAGG", "binding signal": 0.0411},
      {"sequence": "CGCGAACA", "binding signal": 0.0481},
      {"sequence": "CTACTACC", "binding signal": 0.0239},
      {"sequence": "AGTACTAT", "binding signal": 0.066},
      {"sequence": "ATCTTTAA", "binding signal": 0.0347},
      {"sequence": "CTTGATTA", "binding signal": -0.0746},
      {"sequence": "CAGTAAAG", "binding signal": -0.206},
      {"sequence": "TCAAGAGA", "binding signal": -0.0728},
      {"sequence": "AAATGTGG", "binding signal": -0.108},
      {"sequence": "AAGAGCTC", "binding signal": -0.283},
      {"sequence": "GACTTGGC", "binding signal": -0.25},
      {"sequence": "AGTGTTTA", "binding signal": -0.0906},
      {"sequence": "ATATGTTC", "binding signal": 0.334},
      {"sequence": "GAGGTGGC", "binding signal": -0.246},
      {"sequence": "GCAAAGGA", "binding signal": -0.0683},
      {"sequence": "GTTCCAAC", "binding signal": -0.195},
      {"sequence": "CAGTGGAC", "binding signal": -0.122},
      {"sequence": "CAAGCCAC", "binding signal": -0.209},
      {"sequence": "CCCGGTCA", "binding signal": -0.0749},
      {"sequence": "GAATATGA", "binding signal": 0.0489},
      {"sequence": "AGTAAGCG", "binding signal": 0.0443},
      {"sequence": "GTTCACGA", "binding signal": -0.0761},
      {"sequence": "AGTTAAAG", "binding signal": -0.163},
      {"sequence": "AGTTACAA", "binding signal": -0.0681},
      {"sequence": "GTTAAACA", "binding signal": -0.119},
      {"sequence": "AAAGCACA", "binding signal": -0.213},
      {"sequence": "CTTCTCCC", "binding signal": -0.07},
      {"sequence": "ATTGCGAA", "binding signal": -0.0642},
      {"sequence": "ATACCGTG", "binding signal": 0.384},
      {"sequence": "CAGCGCCG", "binding signal": -0.338},
      {"sequence": "ACGATAGT", "binding signal": 0.215},
      {"sequence": "AATGGTTG", "binding signal": -0.206},
      {"sequence": "TCCCTCCA", "binding signal": 0.00395},
      {"sequence": "ACAATTCA", "binding signal": -0.112},
      {"sequence": "ACTCACTA", "binding signal": -0.0254},
      {"sequence": "CCGATCGG", "binding signal": 0.319},
      {"sequence": "CAATAACC", "binding signal": -0.0682},
      {"sequence": "CGAAGCGA", "binding signal": -0.0224},
      {"sequence": "AAGATGGA", "binding signal": 0.108},
      {"sequence": "GTTCTCCA", "binding signal": -0.072},
      {"sequence": "ATGCATAA", "binding signal": -0.00019},
      {"sequence": "CGTCACAC", "binding signal": -0.0792},
      {"sequence": "CTTGCAAA", "binding signal": 0.00662},
      {"sequence": "CAGACTCC", "binding signal": -0.316},
      {"sequence": "CTGGTCAA", "binding signal": -0.203},
      {"sequence": "AGATTCTC", "binding signal": 0.0748},
      {"sequence": "CCCACTCA", "binding signal": -0.0371},
      {"sequence": "CAAACCGG", "binding signal": 0.14},
      {"sequence": "CGTTCTGC", "binding signal": -0.0614},
      {"sequence": "CTCACCCA", "binding signal": 0.0203},
      {"sequence": "GACCGGGC", "binding signal": -0.0973},
      {"sequence": "ATCGTCAA", "binding signal": 0.0973},
      {"sequence": "AACGGATC", "binding signal": 0.376},
      {"sequence": "GGACCTAC", "binding signal": -0.0796},
      {"sequence": "CCTATACA", "binding signal": 0.102},
      {"sequence": "TACGCAGA", "binding signal": 0.0436},
      {"sequence": "GGAATACC", "binding signal": 0.295},
      {"sequence": "CCAGACCA", "binding signal": -0.0642},
      {"sequence": "ATGGCGAG", "binding signal": -0.135},
      {"sequence": "AAGTAGAC", "binding signal": -0.00797},
      {"sequence": "AATACATG", "binding signal": 0.132},
      {"sequence": "GCCCAGAA", "binding signal": -0.254},
      {"sequence": "CATCTCGG", "binding signal": 0.171},
      {"sequence": "CGCGTAAC", "binding signal": -0.205},
      {"sequence": "CAACGACG", "binding signal": -0.194},
      {"sequence": "CGTTTGTC", "binding signal": 0.0311},
      {"sequence": "AGCTGATC", "binding signal": 0.316},
      {"sequence": "CGTGTCAA", "binding signal": 0.0118},
      {"sequence": "TGAGGGCA", "binding signal": -0.126},
      {"sequence": "ACGTAAGC", "binding signal": -0.181},
      {"sequence": "CCGTCTCA", "binding signal": 0.268},
      {"sequence": "GATGTGGA", "binding signal": 0.112},
      {"sequence": "TGCCTACA", "binding signal": -0.0396},
      {"sequence": "ACAATTTC", "binding signal": -0.106},
      {"sequence": "AGCTCTAC", "binding signal": -0.0856},
      {"sequence": "ACTGCCAT", "binding signal": -0.1},
      {"sequence": "CAATAAAA", "binding signal": -0.127},
      {"sequence": "ACAGCCGG", "binding signal": -0.0271},
      {"sequence": "CTTAGCTA", "binding signal": -0.107},
      {"sequence": "ACTGGCGC", "binding signal": -0.0662},
      {"sequence": "GGCCAGCC", "binding signal": -0.27},
      {"sequence": "ATATCGCG", "binding signal": 0.422},
      {"sequence": "TACGATAA", "binding signal": 0.175},
      {"sequence": "AAGCAAAC", "binding signal": -0.17},
      {"sequence": "GATTGACA", "binding signal": -0.12},
      {"sequence": "CCCGACGG", "binding signal": -0.101},
      {"sequence": "AGGTAATA", "binding signal": 0.0875},
      {"sequence": "ATTTGATA", "binding signal": 0.397},
      {"sequence": "CCCAGACA", "binding signal": -0.00105},
      {"sequence": "GTCTTCAC", "binding signal": -0.144},
      {"sequence": "CGGGCTGA", "binding signal": 0.0256},
      {"sequence": "ACGTTTGA", "binding signal": 0.0327},
      {"sequence": "AAACACCA", "binding signal": 0.091},
      {"sequence": "CGGTCTCC", "binding signal": 0.0474},
      {"sequence": "AGGATGCG", "binding signal": 0.0523},
      {"sequence": "GTTCGGGA", "binding signal": 0.0573},
      {"sequence": "ACTCTGCA", "binding signal": 0.0202},
      {"sequence": "CCGGATAC", "binding signal": 0.441},
      {"sequence": "GGCGGAAC", "binding signal": -0.318},
      {"sequence": "AGGGGCAG", "binding signal": -0.0274},
      {"sequence": "AACCCACC", "binding signal": 0.0531},
      {"sequence": "ACCGCCGC", "binding signal": 0.0253},
      {"sequence": "CGCATAAG", "binding signal": -0.143},
      {"sequence": "CCTTTGAG", "binding signal": -0.0717},
      {"sequence": "GCGAAGGA", "binding signal": -0.0644},
      {"sequence": "GTTCAAAC", "binding signal": -0.138},
      {"sequence": "CGTTACGC", "binding signal": -0.239},
      {"sequence": "TAATGTAA", "binding signal": 0.031}
    ]}
  ]
}
